# Experimental data from PubChem BioAssay AID504339 (National Center for Advancing Translational Sciences (NCATS), 2011).
# Screen size: about 390,000 compounds; about 17,000 (4.4%) were called active. The shares of active, inactive and inconclusive entries below differ from those in the screen. The call rests on the fitted dose curve; in most records, active means well fitted inhibition curve with a large enough effect; inconclusive means small, poorly fitted or top-dose-only effect; inactive means no such curve, though single readings can be large or run the other way. Potencies beside an inconclusive call are fits to weak or partial responses and may not hold up.
# Target: Lysine-specific demethylase 4A (Homo sapiens) (UniProt O75164)
# Experiment: qHTS Assay for Inhibitors of JMJD2A-Tudor Domain; further: nearly all actives have a fitted effect of over 50% in size
# Conditions: AlphaScreen JMJD2A-Tudor / H3K4me3 peptide binding; activity change, negative = inhibition: at 114 µM (top of the series)
# On the % scale 0 is the no-effect control and ±100 the full control effect; potency means the concentration at half of the fitted maximal effect; tags describe the fitted curve by direction and shape.
# Sequence of UniProt O75164 (O75164 whole entry, looked up, the tested form may be a part): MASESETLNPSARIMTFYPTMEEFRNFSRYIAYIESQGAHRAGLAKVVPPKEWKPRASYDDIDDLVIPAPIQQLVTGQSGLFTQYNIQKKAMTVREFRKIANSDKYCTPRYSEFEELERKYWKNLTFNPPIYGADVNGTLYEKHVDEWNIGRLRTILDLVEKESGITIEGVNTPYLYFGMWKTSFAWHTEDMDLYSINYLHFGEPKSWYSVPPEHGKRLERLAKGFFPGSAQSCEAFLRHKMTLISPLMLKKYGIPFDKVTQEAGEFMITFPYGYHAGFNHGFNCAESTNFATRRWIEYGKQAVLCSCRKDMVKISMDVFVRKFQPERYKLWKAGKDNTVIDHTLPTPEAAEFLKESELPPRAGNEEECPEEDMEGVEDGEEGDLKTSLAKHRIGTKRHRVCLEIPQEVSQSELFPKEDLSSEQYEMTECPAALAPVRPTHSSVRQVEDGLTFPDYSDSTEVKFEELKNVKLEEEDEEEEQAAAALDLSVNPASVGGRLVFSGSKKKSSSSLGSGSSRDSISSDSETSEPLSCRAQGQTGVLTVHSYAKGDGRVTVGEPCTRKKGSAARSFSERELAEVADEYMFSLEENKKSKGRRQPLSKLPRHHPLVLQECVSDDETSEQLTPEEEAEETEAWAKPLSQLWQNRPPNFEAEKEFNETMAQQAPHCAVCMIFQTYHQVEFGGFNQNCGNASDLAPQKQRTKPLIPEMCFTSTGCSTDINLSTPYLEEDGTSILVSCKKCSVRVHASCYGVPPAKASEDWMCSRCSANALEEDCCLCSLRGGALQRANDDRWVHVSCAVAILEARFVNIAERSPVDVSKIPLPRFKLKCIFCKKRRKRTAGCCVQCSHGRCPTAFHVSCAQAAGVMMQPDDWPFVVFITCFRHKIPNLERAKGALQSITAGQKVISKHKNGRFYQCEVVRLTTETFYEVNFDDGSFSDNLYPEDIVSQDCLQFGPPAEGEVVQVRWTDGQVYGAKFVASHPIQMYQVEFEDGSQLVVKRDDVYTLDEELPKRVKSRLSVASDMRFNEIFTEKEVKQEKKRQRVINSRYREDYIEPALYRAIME
Structure (SMILES),Potency,"activity change, negative = inhibition"
Cc1ccc(O)c(N=Nc2ccc(S(=O)(=O)N3CCOCC3)cc2)c1,active: 14.1 µM,
O=C1NN(c2ccccc2)C(=O)/C1=C\c1cccn1-c1ccc(Cl)c([N+](=O)[O-])c1,"inconclusive: 35.5 µM [inhibitor, partial curve]",
N/C(=N\N=C/c1ccc(F)cc1)N/N=C\c1ccc(F)cc1,"inconclusive: 50.1 µM [inhibitor, partial curve]",
COc1ccc(Br)c2c1-c1nc(NC(=O)c3ccccc3F)sc1C2,"inconclusive: 89.1 µM [inhibitor, partial curve]",
COC(=O)c1sc2cccc(F)c2c1S(=O)(=O)Nc1ccc(N(C)C)cc1,"inconclusive: 50.1 µM [inhibitor, partial curve]",
O=C(OCC(=O)N1CCN(C(=O)c2ccco2)CC1)c1cc(-c2ccccc2)nc2ccccc12,"inconclusive: 79.4 µM [inhibitor, partial curve]",
CCS(=O)(=O)c1ncc(Cl)c(C(=O)Nc2ccc(S(=O)(=O)N3CCCC(C)C3)cc2)n1 (configuration not stated),"inconclusive: 50.1 µM [inhibitor, partial curve]",
COc1ccc(Nc2ccccc2NC(=O)c2ccccc2Br)cc1,"inconclusive: 44.7 µM [inhibitor, partial curve]",
O=C(N/N=C/c1cc(Cl)ccc1O)c1ccncc1,"inconclusive: 7.08 µM [inhibitor, single point]",
O=C(N/N=C1\CCCc2ccccc21)c1ccc([N+](=O)[O-])cc1,"inconclusive: 25.1 µM [inhibitor, full curve]",
Cc1ccc(CSc2nnc(-c3ccccn3)n2N)cc1,"inconclusive: 89.1 µM [inhibitor, single point]",
CCCCOc1ccc(CNC(=O)Cc2ccc(NC(=O)N3CCCCc4ccccc43)cc2)cc1,active: 79.4 µM,
CCOC(=O)c1c(Nc2ccc(F)cc2)nnc(-c2ccccc2)c1-c1ccccc1,"inconclusive: 50.1 µM [inhibitor, partial curve]",
Cc1ccc(CSCC2Nc3ccc(C(=O)N4CCN(c5ccc(F)cc5)CC4)cc3NC2=O)cc1 (configuration not stated),active: 22.4 µM,
C[C@H]1CN([C@@H](C)CO)C(=O)Cc2cc(NS(C)(=O)=O)ccc2O[C@@H]1CN(C)Cc1ccc(Cl)c(Cl)c1,"inconclusive: 35.5 µM [inhibitor, partial curve]",
O=C(Nc1ccc(Cl)cc1)Nc1ccccn1,inactive,
C=CCOC(=O)C(=O)/C=C/c1ccc2c(c1)Cc1ccccc1-2,inactive,
COc1ccc(C(=O)N(Cc2ccccc2)Cc2ccco2)c(O)c1,"inconclusive: 63.1 µM [inhibitor, partial curve, poor fit]",
Cc1ccc(S(=O)(=O)N2CCCc3cc(NS(=O)(=O)c4cc(F)ccc4F)ccc32)cc1,inactive,
CCCC(=O)Nc1cc(C(=O)NCc2ccccc2)ccc1S(=O)(=O)c1ccc(Cl)cc1,inactive,
CCOC(=O)c1ccc(N2C(=O)c3n[nH]c(-c4ccco4)c3C2c2ccc(OCC)cc2)cc1 (configuration not stated),"inconclusive: 10 µM [inhibitor, full curve]",

Structure (SMILES),Potency,"activity change, negative = inhibition"
Cc1ccc(S(=O)(=O)N2CCOCC2)cc1NC(=O)CSc1nnc2cc(C)c3ccccc3n12,"inconclusive: 39.8 µM [inhibitor, single point]",
COC(=O)c1c(-c2snnc2C)n[nH]c1C,"inconclusive: 4.47 µM [inhibitor, single point]",
Oc1ccc(Br)cc1/C=N/n1c(-c2ccccc2)n[nH]c1=S,"inconclusive: 79.4 µM [inhibitor, partial curve]",
O=C(O)c1ccc(NC(=S)NC(=O)c2ccc3ccccc3c2)cc1,"inconclusive: 35.5 µM [inhibitor, partial curve]",
COc1cc(OC)cc(-c2nnc3n2N=C(c2c(OC)cccc2OC)CS3)c1,"inconclusive: 50.1 µM [inhibitor, partial curve]",
CCOC(=O)N1CCc2c(sc(NCc3cccc(F)c3)c2C(=O)Nc2ccc(OC)cc2OC)C1,"inconclusive: 10 µM [inhibitor, partial curve, poor fit]",
COc1ccc(C(=O)OCC(=O)Nc2c(C)n(C)n(-c3ccccc3)c2=O)cc1,inactive,
CN(C/C=C/c1ccccc1[N+](=O)[O-])Cc1ccccc1,active: 28.2 µM,
Cc1nnc(NC(=O)c2ccc(S(=O)(=O)N3CCCCC3C)cc2)o1 (configuration not stated),"inconclusive: 50.1 µM [inhibitor, partial curve, poor fit]",
Cc1ccc(S(=O)(=O)c2nnn3c2nc(NC(C)C)c2sccc23)cc1,inactive,
CC1=C(C(=O)OCc2ccccc2)C(c2ccc(-c3ccccc3)cc2)NC(=O)N1CCCCCC(=O)O (configuration not stated),"inconclusive: 63.1 µM [inhibitor, partial curve, poor fit]",
CC(NO)C(C)(C)NO (configuration not stated),active: 39.8 µM,
CCOCCCNC(=O)/C(C#N)=C/c1ccccc1F,inactive,
COc1ccc(-c2nc(-c3ccccc3)nc(Cl)c2C#N)cc1,"inconclusive: 11.2 µM [inhibitor, full curve, poor fit]",
Cc1cc([N+](=O)[O-])ccc1NCc1ccco1,"inconclusive: 79.4 µM [inhibitor, single point]",
Cc1cc(C)nc(N=Nc2c(O)n(Cc3ccc(Cl)cc3)c3ccccc23)n1,inactive,
Cc1cc(/C=N/NC(=O)c2ccccn2)c(C)n1-c1cccc([N+](=O)[O-])c1,"inconclusive: 50.1 µM [inhibitor, partial curve]",
O=C(C[n+]1cnn(CC(=O)c2ccc(Cl)cc2Cl)c1)c1ccc([N+](=O)[O-])cc1,"inconclusive: 56.2 µM [inhibitor, partial curve]",
COc1ccc(-c2noc(CCC(=O)NCC3CCN(Cc4cccc(C)c4)CC3)n2)cc1,,inactive: -13% [at 11.4 µM]
Cc1cccc(-c2nsc(SCC(=O)Nc3nccs3)n2)c1,"inconclusive: 50.1 µM [inhibitor, partial curve]",
O=[N+]([O-])c1ccc(N2CCOCC2)cc1NC(c1ccccc1)c1ccccc1,"inconclusive: 15.8 µM [inhibitor, full curve]",
